PubChem BioAssay AID1508642 (National Center for Advancing Translational Sciences (NCATS), 2021)
Out of some 43,000 compounds screened, about 200 (0.47%) were called active. Inconclusive results (about 12%) are left out. The call rests on the fitted dose curve; in most records, active means well fitted cell-killing curve with a large enough effect; inconclusive means small, poorly fitted or top-dose-only effect, or effect the other way; inactive means flat fitted curve, though single readings scatter. The list shows a part of the results.

Experiment: Cell viability qHTS assay in S16 Pmp22-F2sN cells; further: nearly all actives have a fitted effect of over 65% in size
Conditions: S16 Pmp22-F2sN Schwann cells (luciferase reporters placed in the Pmp22 gene) viability, CellTiter-Glo, 24 h; series mostly up to 57.5 µM; activity change, negative = cytotoxicity: at the top concentration
Procedure, shortened: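 Luminescence from CellTiter-Glo, read by CCD camera after a 15 min room-temperature incubation, served as the viability signal. Reporter Schwann cells (S16 Pmp22-F2sN) had been treated with pin-transferred compounds for 24 h at 37C.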
On the % scale 0 is the no-effect control and ±100 the full control effect.

| Structure (SMILES) | activity change, negative = cytotoxicity |
| --- | --- |
| Cc1cccc(C(=O)NCc2nnc(SCC(=O)Nc3ccccc3F)n2-c2ccccc2)c1 | inactive: 13.9% |
| COc1ccc(NC(=O)CSc2nc(-c3ccccc3)c3ccccc3n2)cc1 | inactive: 0.464% |
| Brc1ccc(-c2csc(-c3nc(-c4ccc(Br)s4)cs3)n2)cc1 | inactive: 0.848% |
| CCOc1ccc(N(CC(=O)NCc2ccc(C)cc2)S(=O)(=O)c2c(C)[nH]c(=O)[nH]c2=O)cc1 | inactive: 9.94% |
| O=C(Nc1ccccc1C(F)(F)F)N1Cc2ccccc2Oc2ncccc21 | inactive: -3.48% |
| CC(NC(=O)c1ccc(Cn2c(SCc3ccccc3)nc3cccnc32)cc1)c1ccccc1 (stereo not given) | inactive: -20.6% |
| COc1ccc(CN(C(=O)c2ccc(OCC(C)C)cc2)C2CCS(=O)(=O)C2)cc1 (stereo not given) | inactive: -2.79% |
| CC(CCc1ccccc1)NC(=O)Cn1ncc2c3ccccc3n(Cc3cccc(Cl)c3)c2c1=O (stereo not given) | inactive: 2.71% |
| CCN1CCN(C(c2cccc(OC)c2)c2c(O)cc(C)n(Cc3ccco3)c2=O)CC1 (stereo not given) | inactive: 15.1% |
| CCc1ccc(NC(=O)c2sc3nc(-c4ccccc4)cn3c2C)cc1 | inactive: -8.92% |
| CCN(CC)CCNC(=O)Cn1cnc2sc(C)c(S(=O)(=O)N3CCN(c4ccccc4OC)CC3)c2c1=O | inactive: 7.44% |
| Cc1ccc(NC(=O)Nc2csc3c2CCCC3)c(C)c1 | inactive: 1.72% |
| COc1cccc(NC(=O)CN2C(=O)COc3ccc(S(=O)(=O)N4CCOCC4)cc32)c1 | inactive: 5.26% |
| CN(c1nnc(NC(=O)Nc2ccc(Br)cc2)s1)C1CCCCC1 | inactive: 2.1% |
| COc1ccccc1CNc1ncnc2onc(-c3ccc(Cl)cc3)c12 | inactive: 15.1% |
| NC(=O)C1CCN(C(=O)c2ccccc2NC(=O)c2nsc3ccccc23)CC1 | inactive: -1.31% |
| CCOC(=O)c1c(NC(=O)c2cc(=O)c3c(C)cc(C)cc3o2)sc(C)c1C | inactive: 0.906% |
| Cc1cc(C(=O)Nc2ccc(Cl)cc2)c2c(C)nn(-c3ccccc3)c2n1 | inactive: 5.37% |
| O=C(NCCn1cc(SCc2ccc(C(F)(F)F)cc2)c2ccccc21)c1cccs1 | inactive: 4.83% |
| Cc1ccc2nc(-c3ccc(N4CCOCC4)cc3)c(Nc3ccccc3C)n2c1 | inactive: -17.5% |

| Structure (SMILES) | activity change, negative = cytotoxicity |
| --- | --- |
| CNC(=O)C1CCC(Cn2c(=O)c3sccc3n(CC(=O)Nc3ccc(C)cc3C)c2=O)CC1 (stereo not given) | inactive: 4.61% |
| Cc1cccc(NC(=O)CSc2nc(=O)n(CCN3CCOCC3)c3c2CCC3)c1 | inactive: 7.87% |
| COc1ccc(-n2c(C)nc3c(cnn3-c3ccc(F)cc3)c2=O)cc1 | inactive: 1.35% |
| CCCCN(CC)CCCNC(=O)c1c(C)oc2ncnc(N3CCOCC3)c12 | inactive: 20.3% |
| CCc1nn2c(=O)cc(COC(=O)c3cccc(NC(=O)CCc4ccccc4)c3)nc2s1 | inactive: 16.7% |
| CCc1ccc(C(=O)c2cn(CC(=O)Nc3ccc4c(c3)OCCO4)c3ccc(F)cc3c2=O)cc1 | inactive: 5.22% |
| Cc1ccc(NCc2cccn2-c2nnc(N3CCC(C(=O)NCCc4ccc(Cl)cc4)CC3)s2)cc1 | inactive: -10.9% |
| CCCCc1ccc(-n2nc3cc(C)c(NC(=O)c4ccc(C#N)cc4F)cc3n2)cc1 | inactive: -2.07% |
| COc1cc2c(=O)n(CCC(=O)NCC3CCCO3)c(=O)n(CC(=O)Nc3ccccc3C)c2cc1OC (stereo not given) | inactive: 0.423% |
| CCc1nn(CC(=O)NCCc2ccc(OC)cc2OC)c(=O)c2cc3occc3n12 | inactive: -7.63% |
| CCn1cc(/C=C(\NC(=O)c2ccc(OC)cc2)C(=O)NCCCn2ccnc2)c2ccccc21 | inactive: -6.21% |
| COc1ccccc1CNC(=O)C1CCN(c2nc3ccc(Cl)cc3[nH]2)CC1 | inactive: -9.19% |
| Cc1ccc(CNC(=O)CSc2ncc3c(n2)-c2cc(Cl)ccc2N(C)S3(=O)=O)cc1 | inactive: 10.1% |
| COc1cc2cc(CNc3ccccc3)c(=O)n(CC(=O)Nc3cccc(Cl)c3C)c2cc1OC | inactive: -0.328% |
| COc1cc(NC(=O)Cn2c(=O)n(CC3CCC(C(=O)NCCc4ccccc4)CC3)c(=O)c3ccccc32)cc(OC)c1 (stereo not given) | inactive: -1.86% |
| COc1cccc(Cn2cc(C(=O)c3ccccc3)c(=O)c3cc4c(cc32)OCO4)c1 | inactive: -0.611% |
| COc1ccc(-n2ncc3c(NCCCOC(C)C)ncnc32)cc1 | inactive: -8.26% |
| CCCCNC(=O)C1CCCN(S(=O)(=O)CCC)C1 (stereo not given) | inactive: 7.62% |
| CCOc1ccccc1C1CC(=O)Nc2c1c(=O)n(C)c1ncnn21 (stereo not given) | inactive: -1.32% |
| O=C(CCc1nc(CN2CCN(S(=O)(=O)c3ccc(Br)cc3)CC2)no1)N1CCCCC1 | inactive: -20.1% |

| Structure (SMILES) | activity change, negative = cytotoxicity |
| --- | --- |
| COc1ccc2c(c1)c1c(c(=O)n(CCc3ccccc3)c(=O)n1Cc1cccc(Cl)c1)n2C | inactive: -6.94% |
| COc1ccc(CC(=O)Nc2nc3c(s2)CC(C)CC3)cc1 (stereo not given) | inactive: 3.63% |
| Cc1ccc(NC(=O)C2CCCN(S(=O)(=O)c3ccc4[nH]c(=O)ccc4c3)C2)cc1Cl (stereo not given) | inactive: -1.64% |
| CCCn1cc(S(=O)(=O)c2ccc(C)cc2)c(=O)c2cc(F)c(N3CCCC3)cc21 | inactive: 3.06% |
| CCOc1ccccc1Nc1ncnc2c1cnn2-c1ccc(C)cc1 | inactive: 2.78% |
| O=C(NCc1cccc(Cl)c1)c1c2c(nc3ccccc13)C(=O)N(C1CCCCC1)C2 | inactive: 18.2% |
| CC(=O)Nc1cccc(NC(=O)c2cc3c(=O)n4cccc(C)c4nc3n2C)c1 | inactive: 8.03% |
| COc1ccc(CCNC(=O)CCc2c(C)nc3c4c(C)cc(C)nc4nn3c2C)cc1OC | inactive: -3.96% |
| CC(=O)c1c(C)oc2ccc(N(C(=O)Oc3ccccc3)S(=O)(=O)c3ccc(Cl)cc3)cc12 | inactive: -2.21% |
| Cc1ccc(Cn2nnc3c(=O)[nH]c(C4CCN(C(=O)Cc5ccccc5F)CC4)nc32)cc1 | inactive: -1.72% |
| Cc1ccc(CNC(=O)C2CCN(S(=O)(=O)N3CCCCC3)CC2)cc1 | inactive: 10.3% |
| CCc1cccc(NS(=O)(=O)c2c(C)[nH]c(=O)[nH]c2=O)c1 | inactive: 1.47% |
| CCOc1ccccc1Nc1nc2ccccc2c2nncn12 | inactive: 0.164% |
| COc1cccc2c1cc1c(=O)n(CC(=O)N3CCN(c4cccc(C)c4C)CC3)nc(C)n12 | inactive: 15.8% |
| COc1ccc(OCC(=O)Nc2ccc(-c3nc4cc(C)cc(C)c4o3)cc2)cc1 | inactive: -23% |
| CC1CCN(S(=O)(=O)c2ccc3c(c2)CCN3C(=O)Nc2ccccc2Br)CC1 | inactive: 6.86% |
| COc1ccc2c(c1)cc(CNc1ccc(OC)c(OC)c1)c(=O)n2CC(=O)Nc1ccccc1C | inactive: 7.32% |
| CCN(CC)c1ccc(NC(=O)c2cccn2-c2nnc(N3CCCCC3)s2)c(C)c1 | inactive: -18.3% |
| Cc1ccc(S(=O)(=O)N2CCN(C(=O)c3cc(-c4ccc(Br)cc4)n[nH]3)CC2)c(C)c1 | inactive: -16.6% |
| Cc1ccc(NC(=O)C(Cc2ccccc2)NS(=O)(=O)c2ccc3c(c2)c(=O)n(C)c(=O)n3C)c(C)c1 (stereo not given) | inactive: 14.4% |
